In PubChem BioAssay AID651568 (National Center for Advancing Translational Sciences (NCATS), 2012):
The campaign covered roughly 1,200 compounds. About 55 (5%) were called active. Another 15% or so got no clear call; they are omitted. The call rests on the fitted dose curve; in most records, active means well fitted inhibition curve with a large enough effect; inconclusive means small, poorly fitted or top-dose-only effect; inactive means no such curve, though single readings can be large or run the other way. Some of the results follow.

Assay: qHTS Assay to Find Inhibitors of Chronic Active B-Cell Receptor Signaling: Hit Validation in Renilla Reporter Assay; further: nearly all actives have a fitted effect of over 70% in size
Settings: TMD8 IkB-Renilla luciferase reporter, NF-kB signaling; series mostly up to 57.5 µM; activity change, negative = inhibition: at the top concentration
How it was run: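 Dual-Glo luminescence read-out of constitutively expressed IkB-Photinus/Renilla luciferase reporters in ABC-DLBCL lines, used to retest primary hits; reporter enzymes differ from the click beetle luciferases used in the primary screen.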
On the % scale 0 is the no-effect control and ±100 the full control effect; potency means the concentration at half of the fitted maximal effect.

Row | Compound | activity change, negative = inhibition | Potency
1 | CN(C)/C=N/c1sc2c(c1C#N)CCCC2 | inactive: 0.366% | 
2 | COc1ccc(NC(=O)Cn2nnc(-c3ccccc3NS(=O)(=O)c3ccc(OC)cc3)n2)cc1 | inactive: 15.7% | 
3 | CCOC(=O)c1cnc(Nc2nc3ccccc3o2)nc1CSC(=S)N(CC)CC | inactive: -9.25% | 
4 | CCOc1ccc(Cl)cc1C1=CC(=O)C[C@H](c2ccc(OC)cc2)C1 | inactive: 7.4% | 
5 | C[C@@H]1C[C@H]2[C@@H]3C[C@H](F)C4=CC(=O)C=C[C@]4(C)[C@@]3(F)[C@@H](O)C[C@]2(C)[C@@]1(O)C(=O)CO | inactive: 4.85% | 
6 | COc1ccc(CCNC(=O)Cn2c(=O)cnc3ccccc32)cc1 | inactive: -19.8% | 
7 | CCN(CC)c1ccc(NC(=O)CN2CCN(CC(=O)Nc3ccccc3F)CC2)cc1 | inactive: -0.989% | 
8 | CCOC(=O)COc1cccc2c(=O)n(CC(=O)NCc3ccccc3)ccc12 | inactive: 4.41% | 
9 | Cc1cccc(C)c1NC(=O)CNC(=O)CNC(=O)Cc1cccc2ccccc12 | inactive: -7.19% | 
10 | COc1cc2c(cc1OC)C(c1ccc(OC)c(OC)c1OC)CC(=O)N2 (stereo not given) | inactive: 0.463% | 
11 | C/C(=N\N1C(=O)c2ccccc2NC1c1ccco1)c1ccccc1O (stereo not given) | inactive: -0.09% | 
12 | CCOc1cc(-c2nnc(SCC(=O)NCc3ccccc3)nc2-c2ccc(OC)c(OCC)c2)ccc1OC | inactive: 2.52% | 
13 | COC(=O)c1ccc(C)c(NS(=O)(=O)c2ccc(OC)cc2)c1 | inactive: 32.4% | 
14 | Oc1[nH]c2ccc(Br)cc2c1N=NC(=S)Nc1ccc(F)cc1 | inactive: -26.4% | 
15 | COC(=O)C1C(O)=C(C=Nc2ccccc2)C(=O)CC1(C)C (stereo not given) | inactive: -1.84% | 
16 | NC(=S)N=Nc1c(O)n(Cc2ccc(Br)cc2)c2ccccc12 | inactive: -29.3% | 
17 | CN(C(=O)c1ccc(-c2nn(C)c(=O)c3ccccc23)cc1)C1CCCCC1 | inactive: 0.45% | 
18 | Cc1noc(C)c1CSc1ncnc2ccccc12 | inactive: -12.4% | 
19 | CS(=O)(=O)C1=C(O)C(=O)N(c2ccccc2)C1c1ccccc1 (stereo not given) | inactive: 3.86% | 
20 | COc1c(Cl)cc(C(=O)NN)cc1Cl | inactive: -13.8% | 
21 | C=CCN(C(=O)CSC1=NC(=O)CN1C(C)=O)c1nc(C)c(-c2ccccc2)s1 | inactive: 58.9% | 
22 | COc1ccc(C2=NC(C)(C)Cc3cc(OC)c(OC)cc32)cc1OC | inactive: 3.33% | 
23 | COc1cc(NC(=O)CSc2nc3[nH]ncc3c(=O)n2-c2ccccc2C)cc(OC)c1OC | inactive: -2.43% | 
24 | CC1=CC(C)(C)N(S(=O)(=O)c2ccc(C)cc2)c2ccccc21 | inactive: -23.4% | 
25 | Cc1ccc(C)c(NC(=S)N=Nc2c(O)n(C)c3ccc(S(=O)(=O)N4CCOCC4)cc23)c1 | inactive: -21.4% | 
26 | COC(=O)c1ccc(C)c(NS(=O)(=O)c2ccc3c(c2)OCCO3)c1 | inactive: 36.8% | 
27 | COc1cc(Cc2nccc3cc(OC)c(OC)cc23)c(NC(C)=O)cc1OC | inactive: -1.23% | 

Row | Compound | activity change, negative = inhibition | Potency
28 | N#CCCn1cc(/C=N/NC(N)=S)c(-c2ccc(Br)cc2)n1 | inactive: 1% | 
29 | O=C(NN=C1CCCC1)c1n[nH]c2c1CCC2 | inactive: 4.81% | 
30 | COc1cc(C(=O)NCc2cc(C)nc3ccccc23)cc(OC)c1OC | inactive: 6.55% | 
31 | NC(=O)NC[C@@H]1CC[C@@H](Cc2ccc(-c3ccccc3)cc2)O1 | inactive: 0.277% | 
32 | Cc1[nH]n(C(N)=S)c(=O)c1N=Nc1cccc(Cl)c1 | inactive: -4.65% | 
33 | CCNC(=O)[C@H]1O[C@@H](n2cnc3c(N)nc(NCCc4ccc(CCC(=O)O)cc4)nc32)[C@H](O)[C@@H]1O | inactive: -1.91% | 
34 | CCC(C)NC(=O)c1ccccc1NC(=O)c1ccc(CSc2ccccc2)cc1 (stereo not given) | inactive: 1.11% | 
35 | Cc1ccccc1Nc1nc(N)nc(COC(=O)c2cccc(S(=O)(=O)N(C)C)c2)n1 | inactive: 15% | 
36 | CCc1cc2c(SCC(=O)Nc3ccc(NC(C)=O)cc3)ncnc2s1 | inactive: 8.38% | 
37 | CN(CC(=O)Nc1ccc2c(c1)OCCO2)Cc1nc2ccccc2c(=O)[nH]1 | inactive: -15% | 
38 | CCN(CC)c1ccc2cc(-c3nc4ccccc4n3C)c(=O)oc2c1 | inactive: -11.6% | 
39 | COc1cc(C(=O)O/N=C(\N)c2ccc([N+](=O)[O-])cc2)cc(OC)c1OC | inactive: 8.2% | 
40 | COc1cc(OC)cc(C(=O)N[C@H](C(=O)Nc2nc3ccccc3[nH]2)C(C)C)c1 | inactive: -25.8% | 
41 | Cc1ccc(C)c(Cn2c(=O)n(-c3ccc(CC(=O)NCc4ccco4)cc3)c(=O)c3sccc32)c1 | inactive: -11% | 
42 | COc1cc2c(c(OC)c1OC)-c1ccc(OC)c(=O)cc1[C@@H](N(C)CC#CCO)CC2 | inactive: -10.2% | 
43 | O=C(Nc1ccc(N2CCCC2)cc1)c1cc(Cl)ccc1Cl | inactive: -23.5% | 
44 | O=C(CSc1cccc[n+]1[O-])CSc1cccc[n+]1[O-] | inactive: -16.3% | 
45 | COc1ccc2nc(NC(=S)NC(=O)c3ccco3)sc2c1 | inactive: -4.21% | 
46 | S=c1c2c(nc3nc[nH]n13)CCC2 | inactive: 1.81% | 
47 | COc1cc(OC)cc(C(=O)N2CC(=O)Nc3ccccc32)c1 | inactive: -10.2% | 
48 | CCCc1nnc(NC(=O)CCC(=O)NCCc2ccc(OC)c(OC)c2)s1 | inactive: -17.6% | 
49 | Cc1ccc(NC(=S)NC(=O)C2CC2)cc1Cl | inactive: 2.69% | 
50 | Cc1ccc(N=Nc2c(C)[nH]n(C(N)=S)c2=O)cc1 | inactive: 3.24% | 
51 | COCCNC(=S)N/N=C(\C)c1ccc(Cl)c(Cl)c1Cl | inactive: 0.132% | 
52 | Cc1ccc(Sc2c(CO)c(-c3ccccc3)nn2C)cc1 | inactive: 4.68% | 
53 | CCCCC[C@H](O)/C=C/[C@H]1CCC(=O)[C@@H]1CCCCCCC(=O)N1CCCCC1CO (stereo not given in full) | inactive: -12.4% | 
54 | Nc1ncnc2c1ncn2C1OC(C(=O)NC2CC2)C(O)C1O (stereo not given) | inactive: -1.87% | 

Row | Compound | activity change, negative = inhibition | Potency
55 | CCCOc1ccccc1C1CC(=O)Nc2cc3c(cc21)OCO3 (stereo not given) | inactive: -29.4% | 
56 | Cc1cc2nc(/C=C/c3cccnc3)[nH]c2cc1C | inactive: -18.3% | 
57 | N#CC(C#N)=C(N)CSc1cccc[n+]1[O-] | inactive: 2.92% | 
58 | NNC(=O)c1[nH]c2ccc([N+](=O)[O-])cc2c1-c1ccccc1 | inactive: -13.4% | 
59 | COc1cc(C2Nc3ccccc3C(=O)N2c2ccc(Cl)cc2)c(Cl)cc1OCC(=O)O (stereo not given) | inactive: -8.32% | 
60 | Cc1ccc(C)c(NS(=O)(=O)c2ccc(-c3cnc(C4CC4)o3)cc2)c1 | inactive: -22.1% | 
61 | Oc1ccc(-c2nc3cnccn3c2Nc2ccc3c(c2)OCCO3)cc1 | inactive: 4.29% | 
62 | CCOc1ccc(N(CC(=O)Nc2ccccc2OCC)S(=O)(=O)c2c(C)noc2C)cc1 | inactive: -3.84% | 
63 | Cc1cc(=O)c(C(=O)Nc2cccc(N3CCCC3=O)c2)nn1-c1ccccc1Cl | inactive: 1.45% | 
64 | COc1cc([C@@H]2c3cc4c(cc3[C@H](O)[C@H]3COC(=O)[C@H]23)OCO4)cc(OC)c1OC | inactive: -16% | 
65 | CCOC(=O)C(C)N1C(=O)S/C(=C/c2ccc3c(c2)n(C)c(=O)n3C)C1=O (stereo not given) | inactive: 1.42% | 
66 | CCCCC[C@H](O)/C=C/[C@@H]1[C@@H](C/C=C\CCCC(=O)O)[C@H]2CO[C@@H]1C2 | inactive: -2.61% | 
67 | COc1cc(C2C(C#N)=C(N)Oc3cc(N(C)C)ccc32)cc2c1OCO2 (stereo not given) | inactive: -10.1% | 
68 | CC(C)(C)C(=O)NC(=S)NNC(=O)c1ccc(-c2ccccc2)cc1 | inactive: -27.5% | 
69 | NNC(=O)c1[nH]c2ccc(Br)cc2c1-c1ccccc1 | inactive: -7.29% | 
70 | COc1cc(OC)c2c(-c3cccc(-c4ccc(OC)c(F)c4)c3)cc(=O)oc2c1 | inactive: -15.1% | 
71 | N#C/C(=C\c1ccc(Cl)cc1)c1nc2ccccc2o1 | inactive: 7.06% | 
72 | COc1ccccc1NS(=O)(=O)c1ccc(-c2cnc(C3CC3)o2)cc1 | inactive: 19.8% | 
73 | CCc1ccc(/C=N/NC(=O)c2cc(C3CC3)nc3ccccc23)s1 | inactive: -10.8% | 
74 | CCOC(=O)c1c(C)c(C(=O)OCC)n(C)c1C | inactive: -16.5% | 
75 | N#CCN1C(=S)N=C(Nc2cccc(Cl)c2)C12CCCCC2 | inactive: 0.0979% | 
76 | COc1ccc(-c2cc(C(=O)NN)[nH]n2)cc1OC | inactive: -1.88% | 
77 | COc1cc2c(cc1O)CC[C@@H]1[C@@H]2CC[C@]2(C)[C@@H](O)CC[C@@H]12 | inactive: -4.12% | 
78 | COc1ccc(C(=O)N/N=C/c2ccccc2OC(=O)c2ccccc2)cc1 | inactive: -12.9% | 
79 | CCCCN1C(=O)N(C)C2C1N(C)C(=O)N2CCCC (stereo not given) | inactive: 1.12% | 
80 | COc1ccc(-c2nn(C)c(=O)c3ccccc23)cc1CNS(C)(=O)=O | inactive: -3.29% | 
81 | CCCC1=Nc2cc(C(=O)NC3CCCCC3)ccc2Sc2ccc(C)cc21 | inactive: -4.04% | 

Row | Compound | activity change, negative = inhibition | Potency
82 | COc1ccc(C(=O)N(C)Cc2cnn(Cc3ccccc3)c2)cc1S(=O)(=O)N1CCOCC1 | inactive: -0.539% | 
83 | COc1cc2c(cc1OC)C(C)N(C(=O)c1cc(C)on1)CC2 (stereo not given) | inactive: -13.9% | 
84 | Nc1ncnc2c1ncn2[C@@H]1O[C@H](COP(=O)(O)O)[C@@H](O)[C@H]1O | inactive: 7.78% | 
85 | COc1ccc(/C=N/n2c(=S)n(C)c3ccccc32)cc1OC | inactive: -5.63% | 
86 | COc1ccc(C2=Nn3c(nnc3-c3ccccn3)SC2)cc1OC | inactive: -2.2% | 
87 | C/C(=N\NC(=S)NCCc1ccccc1)c1cccc(Br)c1 | inactive: 14.1% | 
88 | COC1=CC(=O)CC(C)C12Oc1c(Cl)c(OC)cc(OC)c1C2=O (stereo not given) | inactive: -2.07% | 
89 | COc1cc(C)nc(NCc2ccccc2)n1 | inactive: 10.7% | 
90 | CC1=Nc2ccccc2/C1=C\c1sc(Nc2ccc(C)cc2)nc1O | inactive: -18.9% | 
91 | Cc1cccc(NC(=O)c2ccc(C(=O)Nc3cccc(C)c3)nc2)c1 | inactive: -7.98% | 
92 | Cc1ccc(NS(=O)(=O)c2cc(-c3n[nH]c(=O)c4ccccc34)ccc2C)cc1 | inactive: -28.3% | 
93 | CN(C)c1nc(=Nc2cccc(Cl)c2)ss1 |  | active: 10.7 µM
94 | Cc1cccc(C(=O)Oc2ccc(/C=N/O)cc2)c1 | inactive: 0.412% | 
95 | CN1c2ccccc2Sc2cc(N)ccc21 | inactive: -7.71% | 
96 | COc1ccc(-c2c(C)nn3c(N)c(C#N)cnc23)cc1OC | inactive: 1.53% | 
97 | Cc1cc(Cl)n2c(nc3cc(F)c(F)cc32)c1C#N |  | active: 1.69 µM
98 | O=C(CSc1cccc[n+]1[O-])c1ccc(Cl)cc1 | inactive: 1.38% | 
99 | CCn1c(O)c(N=NC(=S)NCC2CCCO2)c2ccccc21 (stereo not given) | inactive: -24.2% | 
100 | COc1ccc(-c2c(-c3cc(OC)c(OC)c(OC)c3)noc2C)cn1 | inactive: -20.2% | 
101 | C(=N\Nc1nc2ccccc2[nH]1)/C1CCCCC1 | inactive: -13.5% | 
102 | CCC(=O)[C@@]1(C)[C@H](C)C[C@H]2[C@@H]3CCC4=CC(=O)C=C[C@]4(C)[C@H]3[C@@H](O)C[C@@]21C | inactive: 3.4% | 
103 | CC1(C)N=c2ccc([N+](=O)[O-])c(N)c2=[N+]1[O-] | inactive: -20.4% | 
104 | CCCCNC(=S)N=Nc1c(O)[nH]c2ccccc12 | inactive: 16.5% | 
105 | CCOC(=O)C1C(C(=O)OC)=C(c2ccc(OC)cc2)c2ccccc2N1S(=O)(=O)C(F)(F)F (stereo not given) | inactive: -0.898% | 
